Values marked as one replicate rest on one cluster of the flow cell; about a third of the high ones do not repeat.
These sequences were tested on ATP (assay: switch fluorescence ratio, 500 uM ATP over buffer (Cy3 cluster intensity, sum of 5 cycles each) (fold (ratio)); higher = stronger signal-on switching upon ATP binding; sequences stand for … in TCGTCGGCAGCGTCAGATGTGTATAAGAGACAGTTTTTTTTTTTTTTTTTTTTTTTTT…TC). Conditions: aptamer strand: ATP DNA aptamer (quencher-CACCTGGGGGAGTATTGCGGAGGAAGG + anchor), 100 nM annealed; ATP concentration: 500 uM; one replicate.
In short: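 Between each of five buffer/ATP cycles, the flow-cell was stripped with NaOH and re-annealed. Each cycle imaged Cy3-labelled switching-strand clusters, annealed to 100 nM quencher-labelled ATP aptamer on a modified Illumina MiSeq flow-cell, first in selection buffer and then after 15 min with 500 uM ATP at 22 °C. The fluorescence ratio is summed target-cycle over summed buffer-cycle Cy3 intensity per cluster, averaged per switch-domain sequence, with clusters outside 100-1000 RFU excluded.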
Sequence AACGGTCTCG has a switch fluorescence ratio of 1.02.
In the case of AACGGTTAAT, the switch fluorescence ratio is reported as 0.958.
Sequence AACGTAATTT has a switch fluorescence ratio of 1.16.
For AACGTCCCAA, the switch fluorescence ratio was 1.71.
AACGTCTATG gave a switch fluorescence ratio of 0.946.
Work on AACGTGCGTA yielded a switch fluorescence ratio of 1.
AACGTGGCTC was tested, and the switch fluorescence ratio was 0.975.
Sequence AACGTTCGGA has a switch fluorescence ratio of 1.06.
Sequence AACTAACTAT has a switch fluorescence ratio of 1.07.
In the case of AACTAATCGT, the switch fluorescence ratio is reported as 0.996.
In the case of AACTACAAGC, the switch fluorescence ratio is reported as 1.02.
AACTAGATAA was tested, and the switch fluorescence ratio was 1.02.
With AACTAGCCGA the switch fluorescence ratio was 1.05.
Work on AACTAGGCG yielded a switch fluorescence ratio of 1.02.
For AACTATAGTA, the switch fluorescence ratio was 1.02.
AACTCAGAAT gave a switch fluorescence ratio of 1.03.
Work on AACTCGCCGG yielded a switch fluorescence ratio of 1.1.
AACTCGCTGA showed a switch fluorescence ratio of 1.
AACTCTCTTA was tested, and the switch fluorescence ratio was 1.02.
For AACTCTTCTG, the switch fluorescence ratio was 1.
Work on AACTGACACT yielded a switch fluorescence ratio of 1.14.
For AACTGCCGG, the switch fluorescence ratio was 0.955.
AACTGTAGAG was tested, and the switch fluorescence ratio was 1.04.
Sequence AACTTAGCGC has a switch fluorescence ratio of 0.965.
Work on AACTTAGTAG yielded a switch fluorescence ratio of 0.99.
With AACTTATCTT the switch fluorescence ratio was 0.933.
AACTTATGCG showed a switch fluorescence ratio of 0.998.
AACTTCGG was tested, and the switch fluorescence ratio was 1.06.
AACTTGATA showed a switch fluorescence ratio of 1.02.
Sequence AACTTGCTGG has a switch fluorescence ratio of 0.996.
With AACTTGCTTT the switch fluorescence ratio was 0.98.
With AACTTTAAGA the switch fluorescence ratio was 1.01.
In the case of AACTTTATT, the switch fluorescence ratio is reported as 1.02.
AAGAAATGG showed a switch fluorescence ratio of 0.948.
AAGAACATGA was tested, and the switch fluorescence ratio was 1.02.
AAGAACGACG showed a switch fluorescence ratio of 1.03.
AAGAACGGGG gave a switch fluorescence ratio of 1.03.
In the case of AAGAAGATTG, the switch fluorescence ratio is reported as 0.963.
AAGAAGCTGG showed a switch fluorescence ratio of 0.974.
In the case of AAGAAGGCA, the switch fluorescence ratio is reported as 0.999.
With AAGAATCCCC the switch fluorescence ratio was 1.03.
AAGAATCGC was tested, and the switch fluorescence ratio was 1.01.
For AAGAATGGAC, the switch fluorescence ratio was 1.02.
AAGAATGGG showed a switch fluorescence ratio of 1.02.
Work on AAGACAAAGC yielded a switch fluorescence ratio of 1.01.
AAGACATGTT gave a switch fluorescence ratio of 0.965.
AAGACATTTG was tested, and the switch fluorescence ratio was 1.05.
For AAGACCTAT, the switch fluorescence ratio was 0.998.
AAGACCTTCT gave a switch fluorescence ratio of 1.67.
In the case of AAGACGGATA, the switch fluorescence ratio is reported as 0.95.
With AAGACGGTGG the switch fluorescence ratio was 0.982.
For AAGACTCGG, the switch fluorescence ratio was 1.06.
Sequence AAGACTTGAC has a switch fluorescence ratio of 1.03.
AAGAGATAGA gave a switch fluorescence ratio of 0.973.
Work on AAGAGATCAC yielded a switch fluorescence ratio of 0.97.
AAGAGGACTT was tested, and the switch fluorescence ratio was 0.985.
In the case of AAGAGGATCA, the switch fluorescence ratio is reported as 1.
AAGAGGCAGA showed a switch fluorescence ratio of 0.998.
In the case of AAGAGGGCAA, the switch fluorescence ratio is reported as 1.1.
In the case of AAGAGGGCTA, the switch fluorescence ratio is reported as 1.02.
AAGAGGGG showed a switch fluorescence ratio of 0.999.
For AAGATAAGC, the switch fluorescence ratio was 0.989.
With AAGATACTGT the switch fluorescence ratio was 0.999.
Work on AAGATCCCTG yielded a switch fluorescence ratio of 0.972.
For AAGATGGAGT, the switch fluorescence ratio was 1.
AAGATGTGGA gave a switch fluorescence ratio of 1.01.
In the case of AAGATTATTC, the switch fluorescence ratio is reported as 1.
AAGATTCGGT was tested, and the switch fluorescence ratio was 0.951.
Work on AAGATTTATC yielded a switch fluorescence ratio of 1.01.
For AAGATTTCTT, the switch fluorescence ratio was 0.991.
With AAGATTTTTA the switch fluorescence ratio was 0.983.
AAGCACAAGT gave a switch fluorescence ratio of 1.17.
In the case of AAGCACCAAA, the switch fluorescence ratio is reported as 1.22.
AAGCAGGGC gave a switch fluorescence ratio of 1.01.
For AAGCAGGTA, the switch fluorescence ratio was 1.01.
Work on AAGCAGGTAG yielded a switch fluorescence ratio of 1.02.
Work on AAGCAGGTTT yielded a switch fluorescence ratio of 1.02.
Sequence AAGCAGTTCT has a switch fluorescence ratio of 1.02.
Sequence AAGCCCAAAC has a switch fluorescence ratio of 1.15.
AAGCCGATTT gave a switch fluorescence ratio of 1.01.
AAGCCGGGTA was tested, and the switch fluorescence ratio was 1.01.
AAGCCTGAGA gave a switch fluorescence ratio of 1.01.
For AAGCGAATTC, the switch fluorescence ratio was 1.14.
Work on AAGCGCGAAG yielded a switch fluorescence ratio of 1.11.
For AAGCGGAAAC, the switch fluorescence ratio was 1.14.
AAGCGGCAT gave a switch fluorescence ratio of 1.08.
AAGCGTCATC showed a switch fluorescence ratio of 1.01.
With AAGCGTCCAT the switch fluorescence ratio was 1.01.
Sequence AAGCTAAAAA has a switch fluorescence ratio of 1.02.
AAGCTAAGTA was tested, and the switch fluorescence ratio was 0.997.
Sequence AAGCTAGGAC has a switch fluorescence ratio of 1.16.
AAGCTCTAAC gave a switch fluorescence ratio of 1.04.
For AAGCTCTGGC, the switch fluorescence ratio was 1.07.
For AAGCTGGCCC, the switch fluorescence ratio was 1.03.
In the case of AAGCTGGGTC, the switch fluorescence ratio is reported as 0.976.
Sequence AAGCTTAAAG has a switch fluorescence ratio of 0.919.
AAGCTTACGC was tested, and the switch fluorescence ratio was 1.07.
AAGCTTCGAT was tested, and the switch fluorescence ratio was 1.
Sequence AAGCTTTATC has a switch fluorescence ratio of 1.02.
AAGGAATTTA gave a switch fluorescence ratio of 1.02.
For AAGGACGTTA, the switch fluorescence ratio was 1.07.
With AAGGAGCGTT the switch fluorescence ratio was 0.975.
Work on AAGGAGGTAC yielded a switch fluorescence ratio of 1.
For AAGGATGACA, the switch fluorescence ratio was 1.04.
With AAGGCCGCAG the switch fluorescence ratio was 1.15.
In the case of AAGGCGCAG, the switch fluorescence ratio is reported as 0.969.
With AAGGCTAGAG the switch fluorescence ratio was 1.
Work on AAGGCTATGC yielded a switch fluorescence ratio of 1.1.
With AAGGGAGATC the switch fluorescence ratio was 1.01.
AAGGGAGTGG gave a switch fluorescence ratio of 0.981.
For AAGGGCAAGA, the switch fluorescence ratio was 0.986.
Work on AAGGGCCTAG yielded a switch fluorescence ratio of 1.06.
With AAGGGCCTCT the switch fluorescence ratio was 1.02.
With AAGGGCGGTA the switch fluorescence ratio was 0.976.
Sequence AAGGGCTGAA has a switch fluorescence ratio of 0.998.
With AAGGGGCAAC the switch fluorescence ratio was 0.972.
With AAGGGGGATA the switch fluorescence ratio was 0.979.
Sequence AAGGGTAGAC has a switch fluorescence ratio of 1.01.
In the case of AAGGGTAGCA, the switch fluorescence ratio is reported as 1.04.
AAGGGTCCAA was tested, and the switch fluorescence ratio was 1.07.
Work on AAGGGTGTAT yielded a switch fluorescence ratio of 1.02.
With AAGGGTTGCC the switch fluorescence ratio was 0.984.
Work on AAGGTAAGC yielded a switch fluorescence ratio of 0.986.
In the case of AAGGTATA, the switch fluorescence ratio is reported as 1.
AAGGTATACA gave a switch fluorescence ratio of 1.01.
With AAGGTATCAA the switch fluorescence ratio was 1.05.
AAGGTCAGAA was tested, and the switch fluorescence ratio was 0.96.
AAGGTCATTG showed a switch fluorescence ratio of 1.01.
For AAGGTCGCCG, the switch fluorescence ratio was 1.
AAGGTGACTA showed a switch fluorescence ratio of 1.02.
For AAGGTGCGCG, the switch fluorescence ratio was 1.05.
AAGGTGCTTT gave a switch fluorescence ratio of 1.2.
AAGGTGGCTT gave a switch fluorescence ratio of 1.02.
AAGGTGGGAA was tested, and the switch fluorescence ratio was 0.964.
With AAGGTGTCCC the switch fluorescence ratio was 0.967.
Sequence AAGGTGTGAC has a switch fluorescence ratio of 1.02.
AAGGTTGGGC gave a switch fluorescence ratio of 1.03.
Sequence AAGGTTTCGC has a switch fluorescence ratio of 1.02.
AAGTACACAC was tested, and the switch fluorescence ratio was 1.28.
In the case of AAGTACGTAT, the switch fluorescence ratio is reported as 1.12.
With AAGTAGTCAG the switch fluorescence ratio was 0.993.
With AAGTATAGTA the switch fluorescence ratio was 0.937.
Sequence AAGTATGG has a switch fluorescence ratio of 1.01.
In the case of AAGTATTACA, the switch fluorescence ratio is reported as 1.03.
With AAGTCAAGC the switch fluorescence ratio was 1.06.
With AAGTCAGATG the switch fluorescence ratio was 0.949.
For AAGTCCGGCG, the switch fluorescence ratio was 1.02.
AAGTCGGCCT gave a switch fluorescence ratio of 0.989.
Sequence AAGTCGGGCC has a switch fluorescence ratio of 1.
For AAGTCTGCAT, the switch fluorescence ratio was 1.11.
In the case of AAGTGATCTG, the switch fluorescence ratio is reported as 1.03.
With AAGTGCATTG the switch fluorescence ratio was 1.01.
With AAGTGCTC the switch fluorescence ratio was 1.
AAGTGGAAGG was tested, and the switch fluorescence ratio was 1.
Work on AAGTGGTATA yielded a switch fluorescence ratio of 0.993.
In the case of AAGTGGTGAG, the switch fluorescence ratio is reported as 0.991.
With AAGTGTAACT the switch fluorescence ratio was 1.01.
In the case of AAGTGTCAAT, the switch fluorescence ratio is reported as 1.02.
AAGTGTCTGT showed a switch fluorescence ratio of 1.03.
Sequence AAGTGTGTAC has a switch fluorescence ratio of 0.986.
With AAGTGTTATG the switch fluorescence ratio was 1.01.
Sequence AAGTTAATGC has a switch fluorescence ratio of 1.2.
For AAGTTACCCA, the switch fluorescence ratio was 1.13.
AAGTTAGAGG was tested, and the switch fluorescence ratio was 0.981.
With AAGTTAGTTG the switch fluorescence ratio was 0.999.
In the case of AAGTTATTCC, the switch fluorescence ratio is reported as 1.11.
AAGTTCAGTC showed a switch fluorescence ratio of 1.04.
AAGTTCCTAT was tested, and the switch fluorescence ratio was 0.99.
With AAGTTCGAG the switch fluorescence ratio was 1.02.
In the case of AAGTTCTAGC, the switch fluorescence ratio is reported as 0.948.
Work on AAGTTCTCCT yielded a switch fluorescence ratio of 0.979.
For AAGTTGACAG, the switch fluorescence ratio was 0.986.
AAGTTGATAG showed a switch fluorescence ratio of 1.01.
In the case of AAGTTTAACT, the switch fluorescence ratio is reported as 1.03.
Work on AAGTTTCCTA yielded a switch fluorescence ratio of 0.997.
For AAGTTTCTGG, the switch fluorescence ratio was 0.952.
AAGTTTGTGC was tested, and the switch fluorescence ratio was 0.959.
AATAAAATTC was tested, and the switch fluorescence ratio was 0.965.
For AATAAACTAC, the switch fluorescence ratio was 1.05.
AATAAACTAT gave a switch fluorescence ratio of 1.02.
Work on AATAAAGTGG yielded a switch fluorescence ratio of 1.
For AATAAATAGT, the switch fluorescence ratio was 1.02.
Work on AATAAATTCT yielded a switch fluorescence ratio of 0.997.
Work on AATAAGCGGA yielded a switch fluorescence ratio of 1.02.
AATAAGTGCA showed a switch fluorescence ratio of 0.961.
In the case of AATAATCACT, the switch fluorescence ratio is reported as 1.04.
Sequence AATAATCGTG has a switch fluorescence ratio of 0.994.
Work on AATAATGTCA yielded a switch fluorescence ratio of 1.
In the case of AATACAGGGG, the switch fluorescence ratio is reported as 1.01.
AATACCACAC was tested, and the switch fluorescence ratio was 1.21.
AATACCGGCG showed a switch fluorescence ratio of 1.03.
AATACGCCGG showed a switch fluorescence ratio of 0.97.
AATACGCCTT was tested, and the switch fluorescence ratio was 1.03.
With AATACTAGGA the switch fluorescence ratio was 1.13.
AATACTTTCG gave a switch fluorescence ratio of 1.1.
In the case of AATAGAAAAC, the switch fluorescence ratio is reported as 1.01.
Sequence AATAGACCCA has a switch fluorescence ratio of 1.02.
For AATAGAGGCT, the switch fluorescence ratio was 0.984.
For AATAGAGGGT, the switch fluorescence ratio was 1.01.
AATAGCTTT gave a switch fluorescence ratio of 1.01.
AATAGGACCT gave a switch fluorescence ratio of 1.39.

— the supplement of paper PMC10126150
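Note: ATP exposure 15 min at 22 °C before imaging.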
